Our source for the cytotoxicity call and growth inhibition call values is the antibiotic and cytotoxicity screens of Wong et al. (2023).

One experiment has as its system HSkMC. The experiment in a line: cytotoxicity call (relative viability < 0.9). Conditions: 10 µM.
A further experiment deals with HepG2. The experiment in a line: cytotoxicity call (relative viability < 0.9). The note with it: 10 µM.
The next experiment deals with S. aureus RN4220. The experiment in a line: growth inhibition call (relative growth <= 0.2). Conditions: 50 µM.

This is one part of the list.

For `NCC[C@H]1CC[C@H](NC(=O)NC2CCCCC2)[C@@H](CO)O1`, the cytotoxicity call in the experiment on HSkMC and in the experiment on HepG2 was “inactive” in each case. The growth inhibition call with S. aureus RN4220 was “inactive”.

For `C[C@@H]1CN([C@H](C)CO)C(=O)c2cc(NS(=O)(=O)c3ccc(Cl)cc3)ccc2O[C@@H](C)CCCCO[C@H]1CN(C)S(=O)(=O)c1ccc(Cl)cc1`, the cytotoxicity call in the experiment on HSkMC and with HepG2 was “inactive” throughout. In the experiment on S. aureus RN4220, the growth inhibition call was “inactive”.

With `C[C@H]1CN([C@@H](C)CO)C(=O)Cc2cc(NC(=O)Cc3cn(C)c4ccccc34)ccc2O[C@H]1CN(C)Cc1ccc(C(F)(F)F)cc1`, the cytotoxicity call in the experiment on HSkMC is “inactive”. In the experiment on HepG2, the cytotoxicity call is “active”. Further, the growth inhibition call in the experiment with S. aureus RN4220 is “inactive”.

For `Cc1ccc(S(=O)(=O)N(C)C[C@@H]2OCCCC[C@@H](C)Oc3ccc(NC(=O)Nc4cccc5ccccc45)cc3C(=O)N([C@@H](C)CO)C[C@H]2C)cc1`, the cytotoxicity call with HSkMC and in the experiment with HepG2 was “inactive” in each case. Besides, the growth inhibition call in the experiment with S. aureus RN4220 is “inactive”.

As to `COc1cccc(-c2ccc3c(c2)O[C@@H](CN(C)C(=O)C2CCC2)[C@@H](C)CN([C@@H](C)CO)S3(=O)=O)c1`, the cytotoxicity call in the experiment on HSkMC (human skeletal muscle cells) and in the experiment with HepG2 was “inactive” in each case. The growth inhibition call in the experiment on S. aureus RN4220 is “inactive”.

On to `C[C@@H]1CN([C@H](C)CO)C(=O)c2cc(NS(=O)(=O)c3ccc(Cl)cc3)ccc2O[C@@H](C)CCCCO[C@H]1CN(C)C(=O)Nc1ccc(F)cc1`, for which, in the experiment with HSkMC, the cytotoxicity call is “inactive”. The cytotoxicity call with HepG2 was “active”. Further, the growth inhibition call in the experiment on S. aureus RN4220 was “inactive”.

For the compound `C[C@@H]1CN([C@@H](C)CO)S(=O)(=O)c2ccc(C#CCN(C)C)cc2O[C@H]1CN(C)C(=O)Nc1ccccc1F`, the cytotoxicity call with HSkMC and in the experiment on HepG2 was “inactive” in each case. Further, the growth inhibition call in the experiment with S. aureus RN4220 was “inactive”.

In the case of `CN1CCN(C(=O)C[C@@H]2C=C[C@@H](NC(=O)Cc3ccccn3)[C@@H](CO)O2)CC1`, the cytotoxicity call in the experiment with HSkMC and in the experiment with HepG2 was “inactive” each time. For the same compound, the growth inhibition call with S. aureus RN4220 was “inactive”.

As for `C[C@H](N)[C@H](O)c1cccc(O)c1`, the cytotoxicity call with HSkMC and in the experiment with HepG2 was “inactive” throughout. Moreover, the growth inhibition call in the experiment with S. aureus RN4220 was “inactive”.
